Among all 220,000 compounds or so, about 16,000 (7.3%) were called active. This list was built around the results that the source calls inconclusive (neither active nor inactive); the mix of calls is not that of the screen. Calls follow the shape of the dose curve; as a rule, active = well fitted inhibition curve with a large enough effect (not every such curve was filed as active); inconclusive = small, poorly fitted or top-dose-only effect, or another doubt; inactive = no such curve, though single readings can be large or run the other way. No potency is given beside an inconclusive call; the fits are too rough.
biological target: Aldehyde dehydrogenase 1A1 (Homo sapiens) (UniProt P00352); assay: qHTS Assay for Inhibitors of Aldehyde Dehydrogenase 1 (ALDH1A1); conditions: Purified ALDH1A1, NADH fluorescence, propionaldehyde substrate; series mostly up to 75.3 µM;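 as to activity, negative = inhibition: plate controls were no enzyme wells and a reference inhibitor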
UniProt P00352, sequence (P00352 whole entry, looked up): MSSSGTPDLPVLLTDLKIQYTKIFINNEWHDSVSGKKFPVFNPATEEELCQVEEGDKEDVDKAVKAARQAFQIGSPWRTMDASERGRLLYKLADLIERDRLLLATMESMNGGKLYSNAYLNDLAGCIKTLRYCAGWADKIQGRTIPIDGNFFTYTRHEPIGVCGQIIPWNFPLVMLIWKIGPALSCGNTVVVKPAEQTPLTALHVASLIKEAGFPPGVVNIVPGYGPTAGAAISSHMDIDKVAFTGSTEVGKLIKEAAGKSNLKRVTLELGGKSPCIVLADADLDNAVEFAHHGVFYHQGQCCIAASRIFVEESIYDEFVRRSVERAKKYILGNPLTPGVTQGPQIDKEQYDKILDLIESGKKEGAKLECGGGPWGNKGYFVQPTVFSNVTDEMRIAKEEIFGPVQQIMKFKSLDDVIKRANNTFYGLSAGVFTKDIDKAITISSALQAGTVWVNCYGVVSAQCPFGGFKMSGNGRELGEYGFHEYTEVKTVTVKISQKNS
Potency is read from the fitted curve at half-maximal effect; tags tell the direction and shape of the fitted curve.

| SMILES | Potency | activity, negative = inhibition |
| --- | --- | --- |
| COc1ccccc1NC(c1cccnc1)c1ccc2cccnc2c1O (stereo not drawn) | active: 2.51 µM |  |
| COc1ccc(OC)c(/C=C/C(=O)Nc2cccc(S(=O)(=O)N3CCCC3)c2)c1 | inconclusive [inhibitor, partial curve] |  |
| CN(C)NC(=O)c1ccsc1NC(=O)c1ccc(S(=O)(=O)N(C)C)cc1 | inactive |  |
| CC(C)CCn1c(O)c(N=Nc2ccccn2)c2ccccc21 | active: 0.355 µM |  |
| Cc1cc(C)n(-c2ccc(C(=O)NC3CCCCC3)cc2)n1 | inactive |  |
| Cc1ccc2nc(NC(=S)NC(=O)c3ccco3)sc2c1 | inconclusive [inhibitor, single point] |  |
| Cc1ccc(NC(=O)CSc2nc(N)c(-c3ccccc3)c(=O)[nH]2)cc1Cl | inconclusive [inhibitor, partial curve] |  |
| COc1cc(C2CC(=O)N3CN(Cc4ccccc4)CSC3=C2C#N)ccc1OCc1ccccc1 (stereo not drawn) | active: 10 µM |  |
| O=c1oc2ccccc2cc1-c1csc(Cc2nc(-c3ccc(Cl)cc3)cs2)n1 | inconclusive [inhibitor, partial curve] |  |
| CCOC(=O)c1cnn(-c2nc(-c3ccccc3)cs2)c1C(F)(F)F | inconclusive [inhibitor, single point] |  |
| CC(=O)Nc1ccc(S(=O)(=O)NCC2CCC(C(=O)N3CCCCCC3)CC2)cc1 (stereo not drawn) | active: 22.4 µM |  |
| CCOC(=O)C(NC(=O)Nc1ccc(O)cc1)(c1ccccc1)C(F)(F)F (stereo not drawn) | inactive |  |
| O=c1[nH]c(=S)[nH]c2c1CN(CCCN1CCOCC1)CN2 |  | inactive: 8.85% [at 13.5 µM] |
| COCCNC(=S)NN=C1CCCCC1 | inconclusive [inhibitor, partial curve] |  |
| CCOc1ccc(-c2n[nH]c(C)c2-c2ccccc2OC)c(O)c1 | inconclusive [inhibitor, partial curve] |  |
| CCCNC(=S)N1CCC(n2cnc3ccccc32)CC1 | inconclusive [inhibitor, single point] |  |
| CCCc1cc(=O)[nH]c(SCC(=O)N2N=C(c3ccc(Cl)cc3)CC2c2ccco2)n1 (stereo not drawn) | inconclusive [inhibitor, partial curve] |  |
| Clc1ccc(N=c2ssnc2Cl)cc1 | active: 1.12 µM |  |
| Cc1ccc(S(=O)(=O)N2CCN(C(=S)NCc3ccc4c(c3)OCO4)CC2)cc1 | inconclusive [inhibitor, single point] |  |
| CC(C)N(c1ccccc1)c1ccc(NC(=O)C2CCCO2)cc1 (stereo not drawn) | inconclusive [inhibitor, single point] |  |
| O=C(c1sc2cc(F)ccc2c1Cl)N1CCN(c2cccc(Cl)c2)CC1 | inactive |  |
| O=C(N/N=C/c1ccc(N2CCCCC2)o1)C(O)(c1ccccc1)c1ccccc1 | inconclusive [inhibitor, partial curve, poor fit] |  |
| CCCCc1cc2c(cn1)=C(OC(=O)C1CCCC1)C(C)(OC(=O)CC)C(=O)C=2 (stereo not drawn) | inconclusive [inhibitor, partial curve] |  |
| Cc1nn(-c2ccccc2)c(C)c1/C=N/NC(=O)CSc1nc2ccccc2c(=O)n1-c1ccc(Br)cc1 | inconclusive [inhibitor, full curve] |  |
| CCN1CCN(C(=O)NC(c2ccc(C)c(F)c2)C(Cl)Cl)CC1 (stereo not drawn) | inconclusive [inhibitor, partial curve] |  |

| SMILES | Potency | activity, negative = inhibition |
| --- | --- | --- |
| CCCCN(C)C(=O)c1nc2ccccn2c1CNCCCn1nnc2ccccc21 | inactive |  |
| CCOCCCNC(=O)c1ccc2c(=O)n(Cc3ccc(OC)cc3)c(=O)[nH]c2c1 | inconclusive [inhibitor, partial curve] |  |
| CCCNC(=O)CN1C(=O)NC(Cc2c[nH]c3ccccc23)C1=O (stereo not drawn) | inactive |  |
| Cc1ccc(C(=O)CSc2nnc(COc3cccc(C)c3)o2)cc1 | inconclusive [inhibitor, single point] |  |
| Cc1cccn2c(=O)c3cc(C(=O)NC4CCCC4)c(=N)n(C4CCCC4)c3nc12 | inconclusive [inhibitor, partial curve] |  |
| Cc1nnc(-c2cccc(Br)c2)c2cn(-c3cccc(Br)c3)nc12 | inconclusive [inhibitor, single point] |  |
| Cc1[nH]c2ccccc2c1C(=O)COC(=O)Cn1cnc2ccccc21 | inconclusive [inhibitor, single point] |  |
| C#CCSc1n[nH]c(-c2ccco2)n1 | inactive |  |
| O=C(N/N=C\c1ccc([N+](=O)[O-])o1)C1COc2ccccc2O1 (stereo not drawn) | inconclusive [inhibitor, single point] |  |
| Cc1ccc(S(=O)(=O)NCc2ccco2)cc1C | inconclusive [inhibitor, partial curve] |  |
| Cc1c(C(=O)NCCCN2CCOCC2)sc2ncnc(N3CCN(c4ccccc4)CC3)c12 | inactive |  |
| O=c1[nH]c2cccc(Cl)c2n(CCNc2ncc(C(F)(F)F)cc2Cl)c1=O | inconclusive [inhibitor, single point] |  |
| C/C(N)=C(/C#N)C(=O)CSc1nc2ccccc2c(=O)n1CCCO | inconclusive [inhibitor, single point] |  |
| CC(C)(C)C(=O)Nc1sc2c(c1C#N)CCCCC2 | inactive |  |
| CSc1nc(/C=C2\C=Nc3ccccc32)c(O)n1C | inactive |  |
| Cc1cccc(NC(=O)NNC(=O)COc2ccc(Cl)cc2)c1 | inactive |  |
| COc1cc(COCC(O)CN2CCN(Cc3ccc4c(c3)OCO4)CC2)cc(OC)c1OC (stereo not drawn) | inactive |  |
| Cc1ccc(S(=O)(=O)CCC(=O)OCC(=O)Nc2cc(C)on2)cc1 | inconclusive [inhibitor, partial curve, poor fit] |  |
| O=C(O)c1ccc(N2C(=O)c3cccc4c(C(=O)O)ccc(c34)C2=O)cc1 | inactive |  |
| N#C/C(=C/c1ccc(-c2ccccc2[N+](=O)[O-])o1)C(N)=O | inactive |  |
| COc1cccc(Cn2nc(C(=O)O)c3ccccc3c2=O)c1 | inconclusive [inhibitor, single point] |  |
| CCOC(=O)c1ccc(CC(=O)c2ccc(O)c(O)c2O)o1 | active: 10 µM |  |
| CC(C)OC(=O)c1c(NC(=O)c2ccco2)sc2c1CCCC2 | inconclusive [inhibitor, partial curve] |  |
| COc1ccccc1Oc1nnnn1-c1ccc(C(N)=O)cc1 | active: 12.6 µM |  |
| Nc1cccc(-c2cc(-c3ccccc3)nc(-c3cccc(N)c3)n2)c1 | inconclusive [inhibitor, single point] |  |

| SMILES | Potency | activity, negative = inhibition |
| --- | --- | --- |
| COc1ccc(S(=O)(=O)/N=C2/NC(=O)/C(=C\c3ccco3)S2)cc1 | active: 17.8 µM |  |
| Cn1c(CSCc2ccc(F)cc2)nnc1SCC(=O)N1CCN(c2ccccc2)CC1 | inactive |  |
| CC(C)(C)c1nc(SCC(=O)Nc2ccc3c(c2)OCCO3)c2ccccc2n1 | inactive |  |
| Cc1ccccc1NC(=O)c1ccccc1NC(=O)Cc1cccc2ccccc12 | inconclusive [inhibitor, single point] |  |
| CCOC(=O)C(=O)CC(=O)c1ccc2c(c1)OCCO2 | inconclusive [inhibitor, full curve] |  |
| C=CCn1c(Cc2cccs2)nnc1SCC(=O)c1ccc(F)cc1 | inconclusive [inhibitor, single point] |  |
| Cn1cnnc1Sc1nc2ccccc2nc1NS(=O)(=O)c1ccccc1 | inactive |  |
| Cc1cccc(-n2c(SCC(=O)Nc3cccc(S(=O)(=O)NC4=NCCCCC4)c3)nc3ccccc3c2=O)c1C | inconclusive [inhibitor, partial curve] |  |
| O=C(NCc1ccc2c(c1)OCO2)C1CCC(CNS(=O)(=O)c2cccc3nsnc23)CC1 (stereo not drawn) | inconclusive [inhibitor, single point] |  |
| CC(/C=C/c1ccccc1)=N\NC(=S)NC(C)C | inactive |  |
| COc1ccc(/C=c2/sc3nc(-c4ccccc4)c(-c4ccccc4)n3c2=O)cc1 | inconclusive [inhibitor, single point] |  |
| CCC(=O)N1N=C(c2ccc(C)o2)CC1c1ccc(OC)cc1 (stereo not drawn) | inconclusive [inhibitor, single point] |  |
| C=CCn1c(SCC(=O)NC2CCS(=O)(=O)C2)nnc1-c1cc2c(s1)CCC(CC)C2 (stereo not drawn) | inconclusive [inhibitor, partial curve, poor fit] |  |
| CCc1ccc(C2NC(=S)NC3=C2C(=O)N(c2ccccc2OC)C(c2ccc(CC)cc2)N3)cc1 (stereo not drawn) | inconclusive [inhibitor, single point] |  |
| S=c1[nH]c(-c2ccccc2)cs1 | active: 3.55 µM |  |
| COc1cccc(C2NC(C(=O)O)CCC2C)c1 (stereo not drawn) |  | inactive: 9.96% [at 13.5 µM] |
| Cc1nn(CCC(=O)O)c2nc(-c3cccnc3)cc(C(F)(F)F)c12 | inconclusive [inhibitor, partial curve] |  |
| CC1CCOC(c2coc3ccccc3c2=O)O1 (stereo not drawn) | active: 20 µM |  |
| CC(C)c1ccc(/C=C/C(=O)NCCC2=CCCCC2)cc1 | active: 4.47 µM |  |
| O=C(CNC(=S)N(Cc1ccccc1F)C1CCCCC1)NCCN1CCOCC1 | active: 1.89 µM |  |
| Cc1nn(-c2ccccc2Cl)c2sc(C(=O)Nc3nnc(C4CC4)s3)cc12 | inconclusive [inhibitor, partial curve, poor fit] |  |
| COc1ccc(CC(=O)N2CCN(c3ccc(C4=NNC(=O)CC4C)cc3)CC2)cc1 (stereo not drawn) | inconclusive [inhibitor, partial curve] |  |
| COc1ccc(/C(O)=C2\C(=O)C(=O)N(c3cc(C)on3)C2c2ccccc2OC)cc1 (stereo not drawn) | active: 22.4 µM |  |
